Measurements: the supplement of paper PMC10681739
Over roughly 4,100 sequences, “arbitrary fluorescence units” has its median near 780; the highest 2% begin near 22,000. The list shows a part of the results.

target: T1, ETS1 (UniProt P14921); assay: ETS1 binding intensity (PBM fluorescence), ETS1 alone (arbitrary fluorescence units); higher = stronger binding; settings: ETS1 concentration 1 nM; RUNX1 concentration 0 nM
T1 sequence: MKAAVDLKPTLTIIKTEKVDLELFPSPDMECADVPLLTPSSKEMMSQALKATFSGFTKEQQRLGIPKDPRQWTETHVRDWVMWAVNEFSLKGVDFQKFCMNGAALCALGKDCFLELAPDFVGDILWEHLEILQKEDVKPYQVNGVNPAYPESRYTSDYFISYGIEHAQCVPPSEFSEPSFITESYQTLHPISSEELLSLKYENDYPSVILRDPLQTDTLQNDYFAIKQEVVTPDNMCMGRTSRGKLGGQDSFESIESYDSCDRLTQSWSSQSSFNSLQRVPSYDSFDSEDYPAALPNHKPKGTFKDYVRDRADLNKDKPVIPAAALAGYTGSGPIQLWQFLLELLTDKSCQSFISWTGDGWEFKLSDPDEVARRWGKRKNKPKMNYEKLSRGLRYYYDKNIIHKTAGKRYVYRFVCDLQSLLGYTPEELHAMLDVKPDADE
Description: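 gcPBM on 36-bp genomic-derived probes (partner site mutated) containing one ETS1 site and no RUNX1 site. Recombinant human ETS1 (1 nM) was incubated alone or with RUNX1 (25 nM) and detected by anti-ETS1 antibody fluorescence. Values are medians over 4 replicate spots (not normalised). The probes sit in constant array flanks that are not printed.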

| Sequence | ETS1 binding intensity |
| --- | --- |
| TAAAGCGGAAGGGGCCGGCTCAGCGGCCTGGCCGCT | 1600 |
| GCGCGGACTCCGGGAAGCTGAGCGGCAAAGACCGTG | 359 |
| TCCACGGTAGCCGCGTTCGCCGGAAGGCCGCGACCC | 396 |
| TACAGCACCGTATATGGCTGAGGGAGGAGGAAGGGA | 342 |
| CGGGAGGGGCAGGAAGCGGACTGGGGTGGGGAAGGG | 2510 |
| AGATTCTAGGAAGTGTCTGTAGGCGCAGCTGAGGGT | 484 |
| AAGCTGGGTGTGCTCTCCTGGGCAGGAAGCCACCAA | 467 |
| TGGCGCTGCAGGCCGGGCGGGGGCCGCGGAAGCTGC | 356 |
| TTTCCAGAGGATGTAGCTTCAGCGGGAGAGCTTCAA | 659 |
| CAGCTGACAGGAAGGAGAGAACGACAGACAGTGCGA | 2260 |
| GCTAAAGGAAGCTCTGTACAGCTGTCGTAAGGTGGC | 591 |
| CGTACGCGCACTTCCGGTCTTTGTGACTTGCAGCTC | 38700 |
| TAGGCGGAAAGCCCGCTAGCCTAAATCACAGAGGGT | 355 |
| AAAGCCAACTACCAACCGAGAGCGGAAGTCGGGGAC | 2530 |
| GTAGCAACAGCAGGCTCACACACCGGAAGTGCTCGC | 9380 |
| GTGCTAAGTGAGGAAGTGCAGTTTACAGCACGGTGG | 694 |
| ATGGGATTCCCGCTGGTTGCACCGAAGGAAGCAAGG | 308 |
| GCTCCCCTCAGCCAGCAGAGAAGGCGGAAGCAGTGG | 436 |
| CCTGAGCGCCCGGAAGGAAGGCTGGGGTAGGTTGTC | 756 |
| CTCAGACCCTCAGTGAGGTCTGACGTCATTTCCTGC | 734 |
| GGAACACTGGGGTCGGGGCGAGGAAGCTGCCGGGGA | 388 |

| Sequence | ETS1 binding intensity |
| --- | --- |
| CAGGCTGCTGTGCCTACTGCAGCACTTCCTCCCGCT | 720 |
| CCTCACTAACATCCTGTTGAGGTGTCCCACTATCCA | 14800 |
| CTAAGCAGAGGCCGGAAGCGGTGGTCTTTAGCGGCT | 6000 |
| CTGGGCAGGAAAGGACCTGGCCTCCCAGCCCTCAGG | 426 |
| CCTCAATTTCCTGGCCAGAGAATCCACTGCCTCTCA | 5570 |
| CTTGGGGCTCCTTTCCACCCGCCCCGGAAGCCGGCC | 476 |
| AGCGGCGTCTTCGGGGTCCTTCCTGGCGGCGGGCGC | 392 |
| ATCTGCAACCTCGGAGGCTGCCGCGGGCTTCCTGTC | 658 |
| AGCTGCATTTCCGGGCAGGCAATGAAACTACAGAGT | 18900 |
| GTGTTGTCAAAGTAAAAGCTCAGTGTTTCCGTGTTC | 618 |
| ATGACTCATTTCCTCACTCTCTACTCCCACCGAACC | 2490 |
| CCATCGGAAGTTTTGGGTTTTGCGCTCACAGCCGCC | 512 |
| TGCACGTGGGAGATAAGCAGAGGATCCGGCTGGGGT | 397 |
| TGTTCAGGAACAGGAAATGAAACCCCGCCGCTTTGA | 6100 |
| TGGCTGTCACTTCCTGTCCCACTGTCGTTCCTGGGA | 20600 |
| CCCACCCGGCCTACAAAAAGCGGAACACCGAGCTCG | 473 |
| CGTCCCTGAGGAAGCTGCTGCAGCTTTCTGGGCTAG | 409 |
| CAGAGAGCGGACTTCCGCGACGCGGCTAAGCCGGGC | 3170 |
| GCGCCAAGCGCGCGGCCGCGCTTGCCTTTTCCGGTG | 697 |
| CTCGGAGCGGAACTACTAGGGTGCTTTCTCCTGAGG | 550 |
| AGCTGGCTGTGCTCAGGGTGGAAACAGGAAGAGAAA | 476 |

| Sequence | ETS1 binding intensity |
| --- | --- |
| GCGCGATCTGGGGGTCCCCGGCGCATATCCGGGTCT | 669 |
| TACCTACATCCTGCCACCACCCGAGGGGACCCCAAG | 13200 |
| AGCGCTTCCTTGCCGAGAGGCTGGAGCTTCGGCACC | 2190 |
| CATGAACACCAACAAGCCTGGTTTCCTCTGCGCAGC | 537 |
| TCTCTACTTCCCATTATTTCTGTCGTTAATTTCACC | 2080 |
| TGAATATTCTTCCGCACGTACGCACATGGCTCACTT | 1010 |
| CCCGCTCCTACGGCGCAAGCCCGCCTTCCTGAAGAA | 352 |
| GGTCCGTGGCCCTGGGCACCTCCATCCGCCGCGGCG | 368 |
| CTCGGCGCGACGGATATTCCCGTGATCGCCGGGTTC | 490 |
| AGGCCTGGCCCCCGGACGTGGGCGGCTGCCGGGGCG | 409 |
| GCCCAGGAAGTGGGTACAAAATGAGCTACAAGACCT | 2970 |
| GCTGCCGGAAAAGGCGCCGAGGTAGCCGCCTCACTT | 1380 |
| GGCGCCGCGGAAATCTGTACACACCCCAGCGCGGCC | 354 |
| AATGCTGTAGTTTCAGCCACAGCATCCGGCGAAGGT | 2040 |
| CTGCACAGGGAAGTGAGTGTCGAGCTCACTGCACCG | 419 |
| TTGGTGACCTCTTCCTGTCCGCTGGGGTGTTGTTAC | 3680 |
| TATATGCACAGGAAGTCCCTTACAACCTACTCTGTT | 3590 |
| CCGCCTTTCCGGAGCGCGGGCGCGCCGTGGCGGGAG | 2820 |
| CACTGCATTGTTGGAACGCGGAGCGGAAGCGAAGGG | 906 |
| CTCGGGGACCTCACCCTGCGCGCCGGGAGGAAGGGC | 369 |
| TCCTGTAGCTTAGCTGGGAGAACAGGATGACAGCAA | 438 |
